± gives the standard deviation of the averaged measurements. The list shows a part of the results.

This assay has as its system PfAP2-G AP2 domain (GST-tagged). Put plainly: gcPBM binding intensity (ln(normalized median fluorescence intensity)); higher = stronger DNA binding. The gist of the method:
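Binding intensity is defined as the maximum Masliner-normalised natural-log median intensity across replicate spots for either probe orientation. It was measured on an Agilent 4 × 180k array of primer-extended double-stranded 36-bp intergenic genomic probes and negative controls, to which GST-tagged P. falciparum DNA-binding domains made in E. coli were applied for 1 h in 1× PBS with 1% milk, 0.2 mg/ml BSA, 0.5% salmon testes DNA and 0.03% Triton X-100. Detection was by Alexa488 anti-GST antibody and scanning at 488 nm.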
As to “TATTGATTTATAAACACACACTCGAAGATGTTTAAC [CACACA_site4760]”, the “gcPBM binding intensity (ln)” value turned out to be 9.875 ± 0.007.
In the case of “GGGTATACAAATAAACGTACAAACTCATAAAAAAAA [XGTACX_site3191]”, the “gcPBM binding intensity (ln)” value worked out at 11.3 ± 0.7.
Under “ATAAAATGATAAATTTGTACACAAAAAAAAAAAAAA [XGTACX_site964]” stands 11.2 ± 1; under “AAAATAAAATATTTCTGTACTTATAACTATTCTATA [XGTACX_site8007]”, 11.2 ± 0.71.
As to “CATATATAACAATTCTCACACATAAAAAAAAAAAAT [CACACA_site4564]”, the “gcPBM binding intensity (ln)” value is 9.99 ± 0.28.
For the sequence “TTAAAAAAATATAATACACACCAAAAATATGCACAT [CACACA_site5209]”, the “gcPBM binding intensity (ln)” value was determined as 10.2 ± 0.2.
As to TAATAATTTATAATAGTGCATTTGATTTTAAAAATA, the “gcPBM binding intensity (ln)” value was determined as 9.865 ± 0.035.
With “TTTTTATGGTAAATAAAAATATCTCCCTCCTTAATT [CACACA_negctrl_site1352]”, the “gcPBM binding intensity (ln)” value stood at 9.91 ± 0.18.
Next, “ATATATATATATATATGTACATATATTTATTTATTG [XGTACX_site6267]”: 11.2 ± 0.63.
For “CATTTATTTTTGTTCTGTACATAAAGATGAACAAAA [XGTACX_site6797]”, the “gcPBM binding intensity (ln)” value came out at 11.1 ± 0.83.
For the sequence “ATTTACATAAATTGCATATATCGATGTAAATAAATA [CACACA_negctrl_site1150]”, the “gcPBM binding intensity (ln)” value came out at 9.725 ± 0.092.
For the sequence “TCTTTTTAAACTAATAGTACATATATATTAATAAAT [XGTACX_site4217]”, the “gcPBM binding intensity (ln)” value came to 11 ± 0.73.
Under “AAATAATAAAAAAAATGTACACGTAAATATTATATT [XGTACX_site8125]” stands 11.5 ± 0.92; under “TTTTATATAAAATCGTGTACATACCATTTCCTATTA [XGTACX_site5159]”, 11.5 ± 0.81.
Regarding “AAAAAAAAAAGAAACACACACATTTGTATATAATAT [CACACA_site2078]”, the “gcPBM binding intensity (ln)” value was 9.92 ± 0.17.
On to “TTGATTACACTGAAGTGTACATATATATATATATAT [XGTACX_site3532]”, for which the “gcPBM binding intensity (ln)” value worked out at 11.2 ± 0.75.
Regarding “AAAATTAATAAATAAACACACATATATATATATATA [CACACA_site2598]”, the “gcPBM binding intensity (ln)” value was 9.93 ± 0.35.
Consider “CATATAAAAATGTGCACACACACACCCATATATATT [CACACA_site1526]”, for which the “gcPBM binding intensity (ln)” value was 10.4 ± 0.41.
Under “CAAAACAAAACGTATGCACACAATTAATATATTAAA [CACACA_site3405]” stands 10.2 ± 0.21.
Next, “TTTTTGCCATATTACACACACACATGTAAACCCCCT [CACACA_site1647]”: 10.9 ± 0.69; “GTGAAATATGCAAACACACACGAGAAAAATGTATAT [CACACA_site7488]”: 10.13 ± 0.021; “TATTTTTTTCTTACATACTAATTTGGTACTCACATA [TGCATGCA_negctrl_site81]”: 11 ± 0.75.
Next, “AAATAAATCTTATGCACACAAATAATTAATTAAACA [CACACA_site1693]”: 10.06 ± 0.014; “AGAGTTCTCATATGCACACAAAAAACTTTCATTTAT [CACACA_site45]”: 10.2 ± 0.18.
With “TAAATAAGCACATACACACATACATACATACATAAA [CACACA_site4017]”, the “gcPBM binding intensity (ln)” value came to 10.1 ± 0.16.
“AACCCCGTGGAAATATGTACATATAAATATATAAAT [XGTACX_site2094]”: the “gcPBM binding intensity (ln)” value amounted to 11.1 ± 0.57.
“TATCCTAACTTTAGATGTACACAAATAAAAAAAAAA [XGTACX_site4491]”: the “gcPBM binding intensity (ln)” value turned out to be 11.7 ± 0.91.
Consider “ACAAAATGTAGAAAATGTACAAAATTAACAAAAGAA [XGTACX_site5019]”, for which the “gcPBM binding intensity (ln)” value is 10.7 ± 0.3.
Under “ATTCAATCTTTTAATACACACAATTTATTTCAAAAC [CACACA_site835]” stands 10.1 ± 0.11; under “TGTACATATATATAGATATATATAGATATATATATA [CACACA_negctrl_site1678]”, 10.5 ± 0.28; under “CCATATAAAATATAAAAACACACGTATATATACATA [CACACA_site1511]”, 9.955 ± 0.021.
Next, “TTTTAAAAAGATCATTAAAAAAAAAAAAAGAACAAA [CACACA_negctrl_site528]”: 10 ± 0.23; “ATAATATAACAATACGCACACGTATACAAAAAAAAA [CACACA_site5703]”: 10.6 ± 0.47.
In the case of “AAATAATGGTTAGCTACACACAAAGCATTTTTTGAA [CACACA_site1016]”, the “gcPBM binding intensity (ln)” value came out at 9.79 ± 0.042.
Consider “AAAATACAAACAAGTGGTACTGTTTATAAATGGTTG [XGTACX_site1503]”, for which the “gcPBM binding intensity (ln)” value was 10.9 ± 0.52.
Next, “TGTCTTGTAAATTATTGTACTATTTAAAGTATACAA [XGTACX_site7864]”: 11.2 ± 0.81; “TTGTATATATTTATATGTACATATATTACTTTTGCT [XGTACX_site2449]”: 11.2 ± 0.73; “AATGTTTATTAACATTGTACTTATAATATGTCACAA [XGTACX_site2974]”: 11.3 ± 0.98.
Next, “TATCATGGGTGTATTTCACACACGGATAATCATTTA [CACACA_site8211]”: 10.1 ± 0.28.
As to “AATAATAAAGATCAATGTACATAATAAAAAAAAAAA [XGTACX_site2692]”, the “gcPBM binding intensity (ln)” value came to 10.9 ± 0.61.
With “TTATACCATATTTATAGTACGTACAAATAAATCAAT [XGTACX_site4975]”, the “gcPBM binding intensity (ln)” value amounted to 11.6 ± 0.93.
Next, “AAGAAAAAAAAAAAAAGTACATGCAATATGGATCTT [XGTACX_site3106]”: 11.3 ± 0.76; “TTATTAAGTAAATCACATTTAATTTTTTTTTTTTTT [CACACA_negctrl_site1280]”: 9.31 ± 0.3.
Under “CACATATAAATATTAACACACATAATGAGTTATATA [CACACA_site7316]” stands 9.79 ± 0.12.
Under “TTTTTATTGTTATAGTTATAATATATTATTTGATTA [XGTACX_negctrl_site27]” stands 9.67 ± 0.11.
“TTTTTTTTTTTTGTAACACACAATAATATAACATTA [CACACA_site3411]”: the “gcPBM binding intensity (ln)” value came to 10 ± 0.49.
Under “AATAATTGTTAAAGCTGTACAATACTTATATAAGAA [XGTACX_site5729]” stands 11 ± 0.61.
Regarding “AAACAACATATATTAATATGTACATATATATAGATA [GTGCAC_negctrl_site229]”, the “gcPBM binding intensity (ln)” value is 11.2 ± 0.62.
As for “AATGGAAATTTTTCTTGTACACATATATGACATGTT [XGTACX_site1691]”, the “gcPBM binding intensity (ln)” value stood at 11.3 ± 0.86.
Next, “TTTTTTTTTACTGCATGTACTTGATGTAAATAAATT [XGTACX_site3045]”: 11.1 ± 0.78; “TATAGAATAATCTATAAACACACAAACACAACAAAA [CACACA_site9374]”: 10.4 ± 0.5; “AAAAGATAATTATGCACACACACACCCCCACCCAAC [CACACA_site2570]”: 11.6 ± 0.83.
Turning to “TTATAAATATAATTTTGTACATATATATATATATAC [XGTACX_site5064]”, the “gcPBM binding intensity (ln)” value was found to be 10.8 ± 0.41.
Next, “TTAGAACTATTTTATACATGCAGTTATTTAATACTT [TGCATGCA_site1039]”: 9.905 ± 0.021; “AATATGACGTAGTGGTGTACACACATGGTACCTTTA [XGTACX_site3147]”: 11.7 ± 0.83; ACAACAATTCACTTGATGCACTAACCAAAAAAATAA: 10.12 ± 0.085.
Under “CACGCACGCAGACACACACACACACGCACATATATA [CACACA_site6303]” stands 10.5 ± 0.35.

The record behind these values is the supplement of paper PMC11417369.
